In patent US10946019B2, “Nurr1:RXR activating compounds for simultaneous treatment of symptoms and pathology of Parkinson's disease” (priority 2015, dated 2021):

Legend:
[1] = test system: C57/BL6 PD mice treated with 6-OHDA; assay: Abnormal involuntary movements (AIMs) on chronic daily treatment of 6-OHDA mice; assay type: in vivo, mouse; settings: for dyskinesias with abnormal involuntary movements (AIMs): daily IP for 14 days (compound 3 20 mg/kg)
[2] = test system: C57/BL6 PD mice treated with MPTP; assay: Accelerating rotarod, post-degeneration MPTP mouse model, single dose; assay type: in vivo
[3] = test system: C57BL/6 mice injected unilaterally with 6-OHDA; assay: Neuroprotection in the unilateral 6-OHDA mouse model; settings: unbiased stereology, vs vehicle
[4] = test system: C57/BL6 PD mice treated with 6-OHDA; assay: Rotarod and contralateral turns, post-degeneration 6-OHDA mouse model; assay type: in vivo

SMILES	dyskinesias with abnormal involuntary movements (AIMs) ([1]; 6-OHDA mice)	movement coordination (rotarod) ([2]; single IP 20 mg/kg, 7 days after MPTP)	motor coordination (rotarod) ([2]; single dose 10 mg/kg, 8 days post-acute MPTP, 4 hours post-dosing)	increase in number of surviving TH(+) neurons in the SN [3]	motor coordination on chronic daily treatment ([4]; 6-OHDA mice, daily 10 mg/kg for at least two weeks)	spontaneous contralateral turns ([4]; 6-OHDA model, 10 mg/kg, 4 hours post-dosing)	time post-dosing at which symptomatic improvement disappeared ([4]; MPTP and 6-OHDA post-degeneration models, single dose 10 mg/kg)	movement coordination (rotarod) ([4]; single IP 20 mg/kg, 6-OHDA treated mice)	motor coordination (rotarod) ([4]; single dose 10 mg/kg, 5-6 weeks post-unilateral 6-OHDA, 4 hours post-dosing)	time to dyskinesias/AIMs ([1]; 6-OHDA mice, daily treatment)	dyskinesias/AIMs ([1]; daily from 21 days post-unilateral 6-OHDA, compound 3 10 mg/kg for at least two weeks)
C=CCc1c(N(C)c2ccc(C(=O)O)cc2)nc(-c2ccccc2)nc1C(F)(F)F [Example 3, 4-((5-allyl-2-phenyl-6-(trifluoromethyl)pyrimidin-4-yl)(methyl)amino)benzoic acid]	did not induce dyskinesias	increased movement coordination	significantly improved temporarily motor coordination	47%	consistently improved motor coordination	induced contralateral turns	8 h	increased movement coordination	significantly improved temporarily motor coordination	–	–
N[C@@H](Cc1ccc(O)c(O)c1)C(=O)O [L-DOPA, L-3,4-dihydroxyphenylalanine]	induced dyskinesias	–	–	–	–	–	–	–	–	≤ 7 days	severe hyperkinetic dyskinesias/AIMs
